# Where a chain is given by its changes, count along the chain named. This is one part of the list.
# T1: RBFOX1 RRM (Homo sapiens, UniProt Q9NWB1 109-208)
# T1 sequence: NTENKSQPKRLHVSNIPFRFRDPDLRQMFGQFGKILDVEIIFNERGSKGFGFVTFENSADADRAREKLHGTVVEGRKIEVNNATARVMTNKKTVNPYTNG
# B1: GUACCAA (DNA:RNA)
# RNA: GGGAGACCGGAAUUCAGAUUGUCCGUACCAAUUAAAUCCCGUCGUAGCCACCA
# DNA 1: CAATCTGAATTCCGGTCTCCC
# DNA 2: TGGTGGCTACGACGGGATT
# B2: UGGAAAG (DNA:RNA)
# RNA: B1 RNA with G25U, U26G, A27G, C28A, C29A, A31G
# DNA 1: CAATCTGAATTCCGGTCTCCC
# DNA 2: TGGTGGCTACGACGGGATT
# B3: AGAUAAU (DNA:RNA)
# RNA: B1 RNA with G25A, U26G, C28U, C29A, A31U
# DNA 1: CAATCTGAATTCCGGTCTCCC
# DNA 2: TGGTGGCTACGACGGGATT
# B4: GCACAAU (DNA:RNA)
# RNA: B1 RNA with U26C, C29A, A31U
# DNA 1: CAATCTGAATTCCGGTCTCCC
# DNA 2: TGGTGGCTACGACGGGATT
# B5: AAUGAGU (DNA:RNA)
# RNA: GGGAGACCGGAAUUCAGAUUGUCCAAUGAGUUUAAAUCCCGUCGUAGCCACCA
# DNA 1: CAATCTGAATTCCGGTCTCCC
# DNA 2: TGGTGGCTACGACGGGATT
# B6: CAUAGGA (DNA:RNA)
# RNA: B5 RNA with A25C, G28A, A29G, U31A
# DNA 1: CAATCTGAATTCCGGTCTCCC
# DNA 2: TGGTGGCTACGACGGGATT
# B7: CAUUCAA (DNA:RNA)
# RNA: B1 RNA with G25C, U26A, A27U, C28U
# DNA 1: CAATCTGAATTCCGGTCTCCC
# DNA 2: TGGTGGCTACGACGGGATT
# B8: CAAGAUA (DNA:RNA)
# RNA: B5 RNA with A25C, U27A, G30U, U31A
# DNA 1: CAATCTGAATTCCGGTCTCCC
# DNA 2: TGGTGGCTACGACGGGATT
# B9: GGUAGAU (DNA:RNA)
# RNA: B5 RNA with A25G, A26G, G28A, A29G, G30A
# DNA 1: CAATCTGAATTCCGGTCTCCC
# DNA 2: TGGTGGCTACGACGGGATT
# B10: UCUAUGC (DNA:RNA)
# RNA: B5 RNA with A25U, A26C, G28A, A29U, U31C
# DNA 1: CAATCTGAATTCCGGTCTCCC
# DNA 2: TGGTGGCTACGACGGGATT
# B11: GCGCAAG (DNA:RNA)
# RNA: B1 RNA with U26C, A27G, C29A, A31G
# DNA 1: CAATCTGAATTCCGGTCTCCC
# DNA 2: TGGTGGCTACGACGGGATT
# B12: UUUGUCC (DNA:RNA)
# RNA: B5 RNA with A25U, A26U, A29U, G30C, U31C
# DNA 1: CAATCTGAATTCCGGTCTCCC
# DNA 2: TGGTGGCTACGACGGGATT
# B13: CGCGACC (DNA:RNA)
# RNA: B5 RNA with A25C, A26G, U27C, G30C, U31C
# DNA 1: CAATCTGAATTCCGGTCTCCC
# DNA 2: TGGTGGCTACGACGGGATT
# B14: ACACCUC (DNA:RNA)
# RNA: B1 RNA with G25A, U26C, A30U, A31C
# DNA 1: CAATCTGAATTCCGGTCTCCC
# DNA 2: TGGTGGCTACGACGGGATT
# B15: GCCACCG (DNA:RNA)
# RNA: B1 RNA with U26C, A27C, C28A, A30C, A31G
# DNA 1: CAATCTGAATTCCGGTCTCCC
# DNA 2: TGGTGGCTACGACGGGATT
# B16: AAGUACG (DNA:RNA)
# RNA: B5 RNA with U27G, G28U, G30C, U31G
# DNA 1: CAATCTGAATTCCGGTCTCCC
# DNA 2: TGGTGGCTACGACGGGATT
# B17: GACCCGC (DNA:RNA)
# RNA: B1 RNA with U26A, A27C, A30G, A31C
# DNA 1: CAATCTGAATTCCGGTCTCCC
# DNA 2: TGGTGGCTACGACGGGATT
# B18: CUGUCCU (DNA:RNA)
# RNA: B1 RNA with G25C, A27G, C28U, A30C, A31U
# DNA 1: CAATCTGAATTCCGGTCTCCC
# DNA 2: TGGTGGCTACGACGGGATT
# B19: GCGCAAC (DNA:RNA)
# RNA: B1 RNA with U26C, A27G, C29A, A31C
# DNA 1: CAATCTGAATTCCGGTCTCCC
# DNA 2: TGGTGGCTACGACGGGATT
# B20: GCAAGGC (DNA:RNA)
# RNA: B1 RNA with U26C, C28A, C29G, A30G, A31C
# DNA 1: CAATCTGAATTCCGGTCTCCC
# DNA 2: TGGTGGCTACGACGGGATT
# Biological target: T1, RBFOX1 RRM
# Test: EMSA; HiTS-Eq, 1 nM pool, 10 min; buffer printed only for the single-RNA assays: 10 mM Tris pH 7.5, 150 mM NaCl, 3.4 mM EDTA, 0.001% NP-40, 30 C
# Conditions: tags: His6 N-terminal (pET28a); label: 5' 32P
# How it was run: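 Purified RbFox RRM (wild type or mutant) was equilibrated for 10 min in 50 µL with 1 nM of a 5′-radiolabelled pool of RNA with 7 randomized nucleotides, its flanks annealed to DNA oligonucleotides, across increasing protein concentrations. Free RNA was separated by 8% native PAGE, excised, reverse-transcribed, PCR-barcoded and sequenced on an Illumina HiSeq 2500. Relative association constants came from read-count changes of each variant against the control reaction, normalised to the cognate motif.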
row,Binder,binding signal
1,B1,0.00123 KA relative to UGCAUGU
2,B2,0.0254 KA relative to UGCAUGU
3,B3,0.00177 KA relative to UGCAUGU
4,B4,0.00472 KA relative to UGCAUGU
5,B5,0.0108 KA relative to UGCAUGU
6,B6,0.00268 KA relative to UGCAUGU
7,B7,0.000181 KA relative to UGCAUGU
8,B8,0.00153 KA relative to UGCAUGU
9,B9,0.0134 KA relative to UGCAUGU
10,B10,0.0108 KA relative to UGCAUGU
11,B11,0.0193 KA relative to UGCAUGU
12,B12,0.0149 KA relative to UGCAUGU
13,B13,0.0104 KA relative to UGCAUGU
14,B14,0.000397 KA relative to UGCAUGU
15,B15,0.0074 KA relative to UGCAUGU
16,B16,0.0114 KA relative to UGCAUGU
17,B17,0.00709 KA relative to UGCAUGU
18,B18,0.00988 KA relative to UGCAUGU
19,B19,0.0089 KA relative to UGCAUGU
20,B20,0.00843 KA relative to UGCAUGU

# Reference: paper PMC9911399, “Two distinct binding modes provide the RNA-binding protein RbFox with extraordinary sequence specificity”
